# Reference: patent US5760092A, “Allocolchinones and uses thereof” (Brandeis University, priority 1996, dated 1998)
# Values joined by “and” are separate entries in the source; they are usually repeats but may differ in a detail not shown here. Equal values may be shown once. Read-outs that look alike come from different tables or passages of the source.
# Assays:
# CCRF-CEM leukemia cells = conditions: log10 conc -8.0; 0.01 µM
# [1] = system: A549/ATCC non-small cell lung cancer cells
# [2] = system: NCI-H23 non-small cell lung cancer cells
# [3] = system: HCC-2998 colon cancer cells
# [4] = system: SW-620 colon cancer cells
# UACC-257 melanoma cells [5] = system: UACC-257 melanoma cells
# [6] = system: IGR-OV1 ovarian cancer cells
# K-562 leukemia cells = test: cells; conditions: Homo sapiens
# [7] = system: OVCAR-5 ovarian cancer cells
# [8] = system: PC-3 prostate cancer cells
# [9] = system: MDA-MB-435 breast cancer cells
# [10] = system: MDA-N breast cancer cells; conditions: log10 conc -4.0; 100 µM
# [11] = system: BT-549 breast cancer cells
# [12] = system: A549/ATCC non-small cell lung cancer cells; test: cells; conditions: Homo sapiens
# [13] = system: EKVX non-small cell lung cancer cells; test: cells; conditions: Homo sapiens
# [14] = system: HCT-15 colon cancer cells; test: cells; conditions: Homo sapiens
# [15] = system: SW-620 colon cancer cells; test: cells; conditions: Homo sapiens
# MALME-3M melanoma cells = test: cells; conditions: Homo sapiens
# SK-MEL-5 melanoma cells = test: cells; conditions: Homo sapiens, SK-MEL-5, read-out: Percent Growth, log10 conc -5.0
# UACC-257 melanoma cells [16] = test: cells; conditions: Homo sapiens
# UACC-62 melanoma cells = test: cells; conditions: Homo sapiens
# [17] = system: IGR-OV1 ovarian cancer cells; test: cells; conditions: Homo sapiens
# ACHN renal cancer cells = test: cells; conditions: Homo sapiens, read-out: Percent Growth, log10 conc -8.0
# [18] = system: PC-3 prostate cancer cells; test: cells
# [19] = system: MDA-MB-231/ATCC breast cancer cells; test: cells; conditions: Homo sapiens
# [20] = read-out: Percent Growth, log10 conc -5.0
# [21] = read-out: Percent Growth, log10 conc -6.0
# [22] = read-out: Percent Growth, log10 conc -7.0
# [23] = read-out: Percent Growth, log10 conc -8.0
structure (smiles),measurement,setting,value
CCCC(=O)NC1CCc2cc(OC)c(OC)c(OC)c2-c2ccc(C(C)=O)cc21 (stereo not drawn),Percent Growth,CCRF-CEM leukemia cells,0% and 7%
same,Percent Growth,"RPMI-8226 leukemia cells; log10 conc -5.0, 10 µM",9%
same,Percent Growth,"RPMI-8226 leukemia cells; log10 conc -7.0, 0.1 µM",12%
same,Percent Growth,"RPMI-8226 leukemia cells; log10 conc -8.0, 0.01 µM",15%
same,Percent Growth,"[1]; log10 conc -4.0, 100 µM",11%
same,Percent Growth,"[1]; log10 conc -5.0, 10 µM",18%
same,Percent Growth,"[1]; log10 conc -7.0, 0.1 µM",17%
same,Percent Growth,"[2]; log10 conc -4.0, 100 µM",-32%
same,Percent Growth,[2]; log10 conc -5.0,5%
same,Percent Growth,"[2]; log10 conc -6.0, 1 µM",4%
same,Percent Growth,"[2]; log10 conc -7.0, 0.1 µM",0% and 3%
same,Percent Growth,"[3]; log10 conc -4.0, 100 µM",-54% and -51%
same,Percent Growth,"[3]; log10 conc -6.0, 1 µM",21%
same,Percent Growth,"[3]; log10 conc -7.0, 0.1 µM",22%
same,Percent Growth,"[3]; log10 conc -8.0, 0.01 µM",23%
same,Percent Growth,KM12 colon cancer cells; log10 conc -5.0,-27%
same,Percent Growth,"KM12 colon cancer cells; log10 conc -6.0, 1 µM",-32%
same,Percent Growth,"[4]; log10 conc -4.0, 100 µM",15%
same,Percent Growth,"[4]; log10 conc -7.0, 0.1 µM",26%
same,Percent Growth,"[4]; log10 conc -8.0, 0.01 µM",25%
same,Percent Growth,"UACC-257 melanoma cells [5]; log10 conc -5.0, 10 µM",32%
same,Percent Growth,"UACC-257 melanoma cells [5]; log10 conc -6.0, 1 µM",39%
same,Percent Growth,"UACC-257 melanoma cells [5]; log10 conc -7.0, 0.1 µM",32%
same,Percent Growth,"[6]; log10 conc -5.0, 10 µM",20%
same,Percent Growth,"[6]; log10 conc -6.0, 1 µM",18%
same,Percent Growth,"[6]; log10 conc -7.0, 0.1 µM",20%
same,activity at 100 µM,"K-562 leukemia cells; K562, read-out: Percent Growth, log10 conc -4.0",4%
same,activity at 10 µM,"K-562 leukemia cells; K562, read-out: Percent Growth, log10 conc -5.0",7%
same,activity at 1 µM,"K-562 leukemia cells; K562, read-out: Percent Growth, log10 conc -6.0",6%
same,activity at 0.1 µM,"K-562 leukemia cells; K562, read-out: Percent Growth, log10 conc -7.0",4%
same,activity at 0.01 µM,"K-562 leukemia cells; K562, read-out: Percent Growth, log10 conc -8.0",6%
same,Percent Growth,"[7]; log10 conc -4.0, 100 µM",8%
same,Percent Growth,"[7]; log10 conc -5.0, 10 µM",22%
same,Percent Growth,"[7]; log10 conc -6.0, 1 µM",26%
same,Percent Growth,"[7]; log10 conc -7.0, 0.1 µM",25%
same,Percent Growth,"TK-10 renal cancer cells; log10 conc -4.0, 100 µM",26%
same,Percent Growth,"TK-10 renal cancer cells; log10 conc -5.0, 10 µM",79%
same,Percent Growth,"TK-10 renal cancer cells; log10 conc -6.0, 1 µM",81%
same,Percent Growth,"TK-10 renal cancer cells; log10 conc -7.0, 0.1 µM",77%
same,Percent Growth,TK-10 renal cancer cells; log10 conc -8.0,78%
same,Percent Growth,"TK-10 renal cancer cells; log10 conc -8.0, 0.01 µM",53%
same,Percent Growth,"[8]; log10 conc -6.0, 1 µM",11%
same,Percent Growth,"[8]; log10 conc -7.0, 0.1 µM",12%
same,Percent Growth,"[8]; log10 conc -8.0, 0.01 µM",9%
same,Percent Growth,"[9]; log10 conc -5.0, 10 µM",-44% and -45%
same,Percent Growth,"[9]; log10 conc -6.0, 1 µM",-42% and -46%
same,Percent Growth,"[9]; log10 conc -7.0, 0.1 µM",-45% and -43%
same,Percent Growth,[9]; log10 conc -8.0,-54%
same,Percent Growth,"[9]; log10 conc -8.0, 0.01 µM",-44%
same,Percent Growth,[10],-46%
same,Percent Growth,"[11]; log10 conc -5.0, 10 µM",23%
same,Percent Growth,"[11]; log10 conc -6.0, 1 µM",30%
same,Percent Growth,"[11]; log10 conc -8.0, 0.01 µM",26%
same,activity at 100 µM,"[12]; A549, read-out: Percent Growth, log10 conc -4.0",13%
same,activity at 10 µM,"[12]; A549, read-out: Percent Growth, log10 conc -5.0",12%
same,activity at 1 µM,"[12]; A549, read-out: Percent Growth, log10 conc -6.0",12%
same,activity at 0.1 µM,"[12]; A549, read-out: Percent Growth, log10 conc -7.0",14%
same,activity at 100 µM,"[13]; read-out: Percent Growth, log10 conc -4.0",27%
same,activity at 10 µM,[13]; [20],28%
same,activity at 1 µM,[13]; [21],32%
same,activity at 0.1 µM,[13]; [22],21%
same,activity at 0.01 µM,[13]; [23],23%
same,activity at 100 µM,"[14]; HCT-15, read-out: Percent Growth, log10 conc -4.0",8%
same,activity at 10 µM,"[14]; HCT-15, read-out: Percent Growth, log10 conc -5.0",-15%
same,activity at 1 µM,"[14]; HCT-15, read-out: Percent Growth, log10 conc -6.0",-12%
same,activity at 0.1 µM,"[14]; HCT-15, read-out: Percent Growth, log10 conc -7.0",-17%
same,activity at 0.01 µM,"[14]; HCT-15, read-out: Percent Growth, log10 conc -8.0",6%
same,activity at 10 µM,"[15]; SW-620, read-out: Percent Growth, log10 conc -5.0",28%
same,activity at 1 µM,"[15]; SW-620, read-out: Percent Growth, log10 conc -6.0",23%
same,activity at 0.1 µM,"[15]; SW-620, read-out: Percent Growth, log10 conc -7.0",24%
same,activity at 0.01 µM,"[15]; SW-620, read-out: Percent Growth, log10 conc -8.0",21%
same,activity at 10 µM,MALME-3M melanoma cells; [20],24%
same,activity at 1 µM,MALME-3M melanoma cells; [21],16%
same,activity at 0.1 µM,MALME-3M melanoma cells; [22],15%
same,activity at 10 µM,SK-MEL-5 melanoma cells,1%
same,activity at 10 µM,"UACC-257 melanoma cells [16]; UACC-257, read-out: Percent Growth, log10 conc -5.0",34%
same,activity at 1 µM,"UACC-257 melanoma cells [16]; UACC-257, read-out: Percent Growth, log10 conc -6.0",41%
same,activity at 0.1 µM,"UACC-257 melanoma cells [16]; UACC-257, read-out: Percent Growth, log10 conc -7.0",36%
same,activity at 0.01 µM,"UACC-257 melanoma cells [16]; UACC-257, read-out: Percent Growth, log10 conc -8.0",49%
same,activity at 100 µM,"UACC-62 melanoma cells; UACC-62, read-out: Percent Growth, log10 conc -4.0",26%
same,activity at 10 µM,"UACC-62 melanoma cells; UACC-62, read-out: Percent Growth, log10 conc -5.0",36%
same,activity at 1 µM,"UACC-62 melanoma cells; UACC-62, read-out: Percent Growth, log10 conc -6.0",37%
same,activity at 0.1 µM,"UACC-62 melanoma cells; UACC-62, read-out: Percent Growth, log10 conc -7.0",31%
same,activity at 0.01 µM,"UACC-62 melanoma cells; UACC-62, read-out: Percent Growth, log10 conc -8.0",19%
same,activity at 10 µM,"[17]; IGROV-1, read-out: Percent Growth, log10 conc -5.0",21%
same,activity at 1 µM,"[17]; IGROV-1, read-out: Percent Growth, log10 conc -6.0",16%
same,activity at 0.1 µM,"[17]; IGROV-1, read-out: Percent Growth, log10 conc -7.0",14%
same,activity at 0.01 µM,"[17]; IGROV-1, read-out: Percent Growth, log10 conc -8.0",28%
same,activity at 0.01 µM,ACHN renal cancer cells,36%
same,activity at 0.1 µM,[18]; [22],8%
same,activity at 0.01 µM,[18]; [23],17%
same,activity at 100 µM,"[19]; MDA-MB-231, read-out: Percent Growth, log10 conc -4.0",14%
same,activity at 10 µM,"[19]; MDA-MB-231, read-out: Percent Growth, log10 conc -5.0",3%
